Where two headings read alike, the source gives them in different places. No constants are given. Whether binding was seen depends on the method and setting. In cells and extracts the contact can be indirect. Some results given as binding are weak or reduced against the parent protein; the word gives no strength. Where a sequence is shown, tags or fusion partners need not be part of it. Values belong to the molecule of their own block, whether it stands above or below them.
Experiments:
Test in all cases: co-IP; anti-Flag (M2) on Dynabeads Protein G, 1–2 h at 4°C; lysis in 50 mM HEPES pH 7.5, 150 mM NaCl, 1 mM EDTA, NP-40; washes with 0.2% NP-40; blot for HA; cells in YPD, YPL, SD or SL medium; wild-type or mkt1∆ background; CEN.PK and S288C
[1] = molecular target: T1, Pbp1-Flag (S. cerevisiae) (UniProt P53297)
T1 sequence: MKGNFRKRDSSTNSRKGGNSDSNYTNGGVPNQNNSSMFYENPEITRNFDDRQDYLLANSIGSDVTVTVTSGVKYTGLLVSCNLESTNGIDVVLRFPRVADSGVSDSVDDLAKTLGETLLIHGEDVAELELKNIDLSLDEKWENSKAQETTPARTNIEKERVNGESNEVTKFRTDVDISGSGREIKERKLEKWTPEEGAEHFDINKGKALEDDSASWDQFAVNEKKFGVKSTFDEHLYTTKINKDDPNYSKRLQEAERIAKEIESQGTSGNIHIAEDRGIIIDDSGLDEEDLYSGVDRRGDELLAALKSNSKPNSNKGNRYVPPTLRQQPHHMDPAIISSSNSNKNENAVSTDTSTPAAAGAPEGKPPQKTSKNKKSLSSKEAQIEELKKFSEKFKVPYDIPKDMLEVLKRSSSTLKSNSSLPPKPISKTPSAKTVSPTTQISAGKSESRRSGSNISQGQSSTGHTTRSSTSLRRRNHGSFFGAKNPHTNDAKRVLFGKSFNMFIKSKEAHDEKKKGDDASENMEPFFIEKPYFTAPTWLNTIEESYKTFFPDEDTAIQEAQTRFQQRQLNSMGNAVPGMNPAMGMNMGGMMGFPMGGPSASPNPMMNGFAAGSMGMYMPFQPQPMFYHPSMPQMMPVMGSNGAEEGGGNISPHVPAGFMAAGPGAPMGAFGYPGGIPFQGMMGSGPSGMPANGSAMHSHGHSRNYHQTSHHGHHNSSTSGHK

By UniProt entry, the sequences of proteins in these tests, tags left out.
UniProt P38873: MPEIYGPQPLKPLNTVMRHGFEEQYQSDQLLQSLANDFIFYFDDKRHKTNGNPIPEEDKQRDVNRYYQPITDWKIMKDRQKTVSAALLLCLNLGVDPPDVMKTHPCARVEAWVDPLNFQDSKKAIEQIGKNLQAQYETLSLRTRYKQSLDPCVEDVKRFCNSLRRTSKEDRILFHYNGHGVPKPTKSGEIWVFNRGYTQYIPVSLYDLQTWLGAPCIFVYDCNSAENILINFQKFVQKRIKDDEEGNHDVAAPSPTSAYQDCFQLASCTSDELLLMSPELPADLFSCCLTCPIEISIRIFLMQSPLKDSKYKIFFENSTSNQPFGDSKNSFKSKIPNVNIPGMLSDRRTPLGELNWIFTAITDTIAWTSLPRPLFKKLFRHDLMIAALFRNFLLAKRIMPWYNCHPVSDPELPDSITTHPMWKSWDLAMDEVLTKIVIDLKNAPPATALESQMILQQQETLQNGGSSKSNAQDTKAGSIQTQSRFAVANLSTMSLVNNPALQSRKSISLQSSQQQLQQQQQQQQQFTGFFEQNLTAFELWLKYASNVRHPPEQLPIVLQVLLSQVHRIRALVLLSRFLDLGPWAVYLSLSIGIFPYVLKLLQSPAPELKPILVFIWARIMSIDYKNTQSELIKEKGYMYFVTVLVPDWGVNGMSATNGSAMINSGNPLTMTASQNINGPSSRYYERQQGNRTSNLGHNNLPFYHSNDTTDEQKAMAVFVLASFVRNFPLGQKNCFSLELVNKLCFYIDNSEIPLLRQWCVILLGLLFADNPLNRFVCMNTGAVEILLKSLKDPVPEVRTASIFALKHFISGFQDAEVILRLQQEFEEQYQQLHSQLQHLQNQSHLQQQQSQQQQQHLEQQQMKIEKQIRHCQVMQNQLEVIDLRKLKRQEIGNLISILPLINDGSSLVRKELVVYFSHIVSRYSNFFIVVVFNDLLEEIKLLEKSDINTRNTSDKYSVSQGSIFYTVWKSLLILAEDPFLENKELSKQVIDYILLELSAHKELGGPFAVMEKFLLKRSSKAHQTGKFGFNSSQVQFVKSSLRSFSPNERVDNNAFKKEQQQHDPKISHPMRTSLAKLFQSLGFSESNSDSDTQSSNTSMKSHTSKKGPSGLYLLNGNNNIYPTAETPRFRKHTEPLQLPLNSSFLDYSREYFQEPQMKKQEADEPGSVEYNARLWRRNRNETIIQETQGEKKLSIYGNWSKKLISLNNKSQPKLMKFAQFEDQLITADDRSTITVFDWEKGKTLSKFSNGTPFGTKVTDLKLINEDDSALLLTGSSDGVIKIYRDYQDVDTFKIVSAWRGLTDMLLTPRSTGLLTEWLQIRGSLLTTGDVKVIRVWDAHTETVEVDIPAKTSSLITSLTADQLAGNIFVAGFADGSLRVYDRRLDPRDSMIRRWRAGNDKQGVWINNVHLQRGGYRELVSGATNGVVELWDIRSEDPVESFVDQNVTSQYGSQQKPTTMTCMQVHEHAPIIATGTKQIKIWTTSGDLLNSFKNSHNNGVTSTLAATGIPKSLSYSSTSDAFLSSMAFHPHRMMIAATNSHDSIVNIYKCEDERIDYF

[2] = molecular target: T1, Pbp1-Flag (S. cerevisiae); remark: listed apart in the source
[3] = molecular target: T2, Mkt1-D30/R453 (Flag-tagged) (S. cerevisiae) (UniProt P40850)
T2 sequence: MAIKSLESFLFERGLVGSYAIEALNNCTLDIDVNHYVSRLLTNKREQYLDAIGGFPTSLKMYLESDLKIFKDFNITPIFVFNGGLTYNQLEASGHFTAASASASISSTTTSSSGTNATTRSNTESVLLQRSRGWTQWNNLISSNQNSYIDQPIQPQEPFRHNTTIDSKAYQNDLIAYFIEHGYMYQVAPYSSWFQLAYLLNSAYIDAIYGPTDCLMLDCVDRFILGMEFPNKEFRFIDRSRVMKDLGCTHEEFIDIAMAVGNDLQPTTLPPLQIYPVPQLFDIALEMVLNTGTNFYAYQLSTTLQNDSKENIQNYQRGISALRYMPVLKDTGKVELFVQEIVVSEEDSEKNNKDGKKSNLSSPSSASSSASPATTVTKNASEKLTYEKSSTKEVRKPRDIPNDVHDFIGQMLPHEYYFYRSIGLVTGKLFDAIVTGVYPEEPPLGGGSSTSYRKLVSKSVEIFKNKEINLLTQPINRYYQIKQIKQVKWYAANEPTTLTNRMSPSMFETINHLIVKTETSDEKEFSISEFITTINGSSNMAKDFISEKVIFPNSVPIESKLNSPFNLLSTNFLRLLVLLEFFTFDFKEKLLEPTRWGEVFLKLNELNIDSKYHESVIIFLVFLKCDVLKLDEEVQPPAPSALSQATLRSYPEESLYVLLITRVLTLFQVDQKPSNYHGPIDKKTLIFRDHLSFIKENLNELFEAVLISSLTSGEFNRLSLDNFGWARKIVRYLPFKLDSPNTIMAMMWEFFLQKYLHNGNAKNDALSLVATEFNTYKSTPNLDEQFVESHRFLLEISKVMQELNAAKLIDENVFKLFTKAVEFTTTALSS

[4] = molecular target: T3, Mkt1-D30/K453 (Flag-tagged) (S. cerevisiae) (UniProt P40850)
T3 sequence: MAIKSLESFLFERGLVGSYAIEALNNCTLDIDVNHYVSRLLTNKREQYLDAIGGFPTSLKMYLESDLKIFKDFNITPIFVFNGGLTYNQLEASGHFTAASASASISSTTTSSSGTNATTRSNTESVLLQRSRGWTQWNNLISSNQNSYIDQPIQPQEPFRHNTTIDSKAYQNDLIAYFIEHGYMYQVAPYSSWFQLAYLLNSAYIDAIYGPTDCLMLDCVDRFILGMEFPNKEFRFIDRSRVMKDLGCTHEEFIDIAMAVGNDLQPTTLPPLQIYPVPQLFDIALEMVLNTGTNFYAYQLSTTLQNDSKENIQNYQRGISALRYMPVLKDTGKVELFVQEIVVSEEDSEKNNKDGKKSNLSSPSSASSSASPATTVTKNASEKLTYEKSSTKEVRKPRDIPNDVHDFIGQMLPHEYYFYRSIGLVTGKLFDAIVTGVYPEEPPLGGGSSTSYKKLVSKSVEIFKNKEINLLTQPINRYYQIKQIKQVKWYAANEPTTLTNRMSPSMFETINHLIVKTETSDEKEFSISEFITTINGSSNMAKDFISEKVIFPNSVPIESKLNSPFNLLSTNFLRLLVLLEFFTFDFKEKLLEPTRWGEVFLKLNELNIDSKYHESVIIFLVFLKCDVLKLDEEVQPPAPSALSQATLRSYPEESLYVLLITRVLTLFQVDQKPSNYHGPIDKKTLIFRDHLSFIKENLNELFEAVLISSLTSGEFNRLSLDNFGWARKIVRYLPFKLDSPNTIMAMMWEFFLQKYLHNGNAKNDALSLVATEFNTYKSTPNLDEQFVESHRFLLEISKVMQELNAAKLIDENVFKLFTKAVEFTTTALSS

binding [1]: binds
Molecule: Kog1-HA (from UniProt P38873 1-1557)

binding [2]: binds
B1: Puf3-HA (protein, UniProt Q07807 1-879)
chain: MEMNMDMDMDMELASIVSSLSALSHSNNNGGQAAAAGIVNGGAAGSQQIGGFRRSSFTTANEVDSEILLLHGSSESSPIFKKTALSVGTAPPFSTNSKKFFGNGGNYYQYRSTDTASLSSASYNNYHTHHTAANLGKNNKVNHLLGQYSASIAGPVYYNGNDNNNSGGEGFFEKFGKSLIDGTRELESQDRPDAVNTQSQFISKSVSNASLDTQNTFEQNVESDKNFNKLNRNTTNSGSLYHSSSNSGSSASLESENAHYPKRNIWNVANTPVFRPSNNPAAVGATNVALPNQQDGPANNNFPPYMNGFPPNQFHQGPHYQNFPNYLIGSPSNFISQMISVQIPANEDTEDSNGKKKKKANRPSSVSSPSSPPNNSPFPFAYPNPMMFMPPPPLSAPQQQQQQQQQQQQEDQQQQQQQENPYIYYPTPNPIPVKMPKDEKTFKKRNNKNHPANNSNNANKQANPYLENSIPTKNTSKKNASSKSNESTANNHKSHSHSHPHSQSLQQQQQTYHRSPLLEQLRNSSSDKNSNSNMSLKDIFGHSLEFCKDQHGSRFIQRELATSPASEKEVIFNEIRDDAIELSNDVFGNYVIQKFFEFGSKIQKNTLVDQFKGNMKQLSLQMYACRVIQKALEYIDSNQRIELVLELSDSVLQMIKDQNGNHVIQKAIETIPIEKLPFILSSLTGHIYHLSTHSYGCRVIQRLLEFGSSEDQESILNELKDFIPYLIQDQYGNYVIQYVLQQDQFTNKEMVDIKQEIIETVANNVVEYSKHKFASNVVEKSILYGSKNQKDLIISKILPRDKNHALNLEDDSPMILMIKDQFANYVIQKLVNVSEGEGKKLIVIAIRAYLDKLNKSNSLGNRHLASVEKLAALVENAEV

binding [3]: binds weakly | binding [4]: binds weakly
B2: Pbp1-HA (protein, UniProt P53297 1-722)
chain: MKGNFRKRDSSTNSRKGGNSDSNYTNGGVPNQNNSSMFYENPEITRNFDDRQDYLLANSIGSDVTVTVTSGVKYTGLLVSCNLESTNGIDVVLRFPRVADSGVSDSVDDLAKTLGETLLIHGEDVAELELKNIDLSLDEKWENSKAQETTPARTNIEKERVNGESNEVTKFRTDVDISGSGREIKERKLEKWTPEEGAEHFDINKGKALEDDSASWDQFAVNEKKFGVKSTFDEHLYTTKINKDDPNYSKRLQEAERIAKEIESQGTSGNIHIAEDRGIIIDDSGLDEEDLYSGVDRRGDELLAALKSNSKPNSNKGNRYVPPTLRQQPHHMDPAIISSSNSNKNENAVSTDTSTPAAAGAPEGKPPQKTSKNKKSLSSKEAQIEELKKFSEKFKVPYDIPKDMLEVLKRSSSTLKSNSSLPPKPISKTPSAKTVSPTTQISAGKSESRRSGSNISQGQSSTGHTTRSSTSLRRRNHGSFFGAKNPHTNDAKRVLFGKSFNMFIKSKEAHDEKKKGDDASENMEPFFIEKPYFTAPTWLNTIEESYKTFFPDEDTAIQEAQTRFQQRQLNSMGNAVPGMNPAMGMNMGGMMGFPMGGPSASPNPMMNGFAAGSMGMYMPFQPQPMFYHPSMPQMMPVMGSNGAEEGGGNISPHVPAGFMAAGPGAPMGAFGYPGGIPFQGMMGSGPSGMPANGSAMHSHGHSRNYHQTSHHGHHNSSTSGHK

Source: paper PMC12345631
